Measured values from the supplement of paper PMC4967469.
Lines with a small IC50 respond at low doses; fits outside the tested doses are given as limits. AUC sums up the same curve from the lowest dose to the 256-fold higher top dose; values near 1 show little effect. For some assays here: The top dose, if marked as inferred, was calculated from the reported fits. For some assays here: Where an entry number is given, a second screen of the drug exists; the two often differ.

Legend:
Assay in all cases: Viability of human cancer cell lines after 72 h of drug (GDSC screen)
[1] = compound: CC(=O)O[C@@]12CO[C@@H]1C[C@H](O)[C@@]1(C)C(=O)[C@H](O)C3=C(C)[C@@H](OC(=O)[C@H](O)[C@@H](NC(=O)OC(C)(C)C)c4ccccc4)C[C@@](O)([C@@H](OC(=O)c4ccccc4)[C@H]21)C3(C)C [Docetaxel]; details: top dose 0.0125 µM
Method: (§1)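 Human cancer cell lines in 384-well plates, medium with 10% serum, drug for 72 h over a 256-fold dose range (nine 2-fold or five 4-fold steps up to the top dose). Adherent lines were fixed and stained with the nucleic acid dye Syto60, suspension lines read with resazurin; signal relative to control wells, capped at 0 and 100%. One two-parameter sigmoid per drug and line, fitted in a mixed model over all curves with the slope shared within a line.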

[2] = compound: C[C@]1(O)C[C@@H](c2nc(-c3ccc4ccc(-c5ccccc5)nc4c3)c3c(N)nccn32)C1 [OSI-906]; details: top dose 2.56 µM; top dose inferred
Method: as §1

[3] = compound: CC1=C2C[C@H]3[C@@H](CC=C4C[C@@H](O)CC[C@@]43C)[C@@H]2CC[C@]12O[C@@H]1C[C@H](C)CN[C@H]1[C@H]2C [Cyclopamine]; details: top dose 16 µM; top dose inferred
Method: as §1

[4] = compound: CC1(C)CNc2cc(NC(=O)c3cccnc3NCc3ccncc3)ccc21 [AMG-706]; details: top dose 2 µM; top dose inferred
Method: as §1

[5] = compound: CN1CCN(c2ccc([N+](=O)[O-])c3no[n+]([O-])c23)CC1 [NSC-207895]; details: top dose 20 µM; top dose inferred
Method: as §1

[6] = compound: c1ccc2c(CCNc3ccc(Nc4ccncc4)cc3)c[nH]c2c1 [JNJ-26854165]; details: top dose 10 µM
Method: as §1

[7] = compound: COCC[n+]1c2c(n(Cc3cnccn3)c1C)C(=O)c1ccccc1C2=O [YM155]; details: top dose 5.12 µM
Method: as §1

[8] = compound: O=C(/C=C/c1cccc(S(=O)(=O)Nc2ccccc2)c1)NO [Belinostat]; details: top dose 20 µM; top dose inferred
Method: as §1

[9] = compound: Cc1ccc(C(=O)N(CCCN)[C@@H](c2nc3cc(Cl)ccc3c(=O)n2Cc2ccccc2)C(C)C)cc1 [SB-715992]; details: top dose 0.128 µM; top dose inferred
Method: as §1

[10] = compound: CCOc1nc(NC(=O)Cc2cc(OC)ccc2OC)cc(N)c1C#N [JNK Inhibitor VIII]; details: top dose 10 µM; top dose inferred
Method: as §1

[11] = compound: Cc1sc2c(c1C)C(c1ccc(Cl)cc1)=N[C@@H](CC(=O)OC(C)(C)C)c1nnc(C)n1-2 [JQ1]
Method: as §1

[12] = compound: COC(=O)[C@H](CCSC)NC(=O)c1ccc(NC[C@@H](N)CS)cc1-c1ccccc1 [FTI-277]; details: top dose 1.024 µM; top dose inferred
Method: as §1

[13] = compound: OCCCNc1cc(-c2ccnc(Nc3cccc(Cl)c3)n2)ccn1 [CGP-60474]; details: top dose 0.256 µM; top dose inferred
Method: as §1

[14] = top dose 1 µM, screen: GDSC drug entry 1218, top dose inferred
[15] = top dose 2.56 µM, screen: GDSC drug entry 163

| Cell Line | AUC [1] | IC50 [1] [nM] | AUC [2] | IC50 [2] [nM] | AUC [3] | IC50 [3] [nM] | AUC [4] | IC50 [4] [nM] | AUC [5] | IC50 [5] [nM] | AUC [6] | IC50 [6] [nM] | AUC [7] | IC50 [7] [nM] | AUC [8] | IC50 [8] [nM] | AUC [9] | IC50 [9] [nM] | AUC [10] | IC50 [10] [nM] | AUC [11, 14] | IC50 [11, 14] [nM] | AUC [11, 15] | IC50 [11, 15] [nM] | AUC [12] | IC50 [12] [nM] | AUC [13] | IC50 [13] [nM] |
| --- | --- | --- | --- | --- | --- | --- | --- | --- | --- | --- | --- | --- | --- | --- | --- | --- | --- | --- | --- | --- | --- | --- | --- | --- | --- | --- | --- | --- |
| DU-4475 (breast, suspension) | 0.937 | > 12.5 | 0.947 | > 2560 | 0.992 | > 16000 | 0.99 | > 2000 | 0.977 | > 20000 | 0.874 | 6750 | 0.261 | 78.2 | 0.271 | 324 | 0.776 | 41.6 | 0.981 | > 10000 | 0.983 | > 1000 | 0.635 | 349 | 0.959 | > 1020 | 0.78 | 85.9 |
| EJM (lymphoid neoplasm, semi-adherent) | 0.879 | 9.39 | 0.954 | > 2560 | 0.989 | > 16000 | 0.992 | > 2000 | 0.918 | > 20000 | 0.95 | > 10000 | 0.033 | < 20 | 0.309 | 403 | 0.814 | 56.2 | 0.992 | > 10000 | 0.991 | > 1000 | 0.927 | > 2560 | 0.992 | > 1020 | 0.768 | 81.5 |
| ES5 (Ewing sarcoma, adherent) | 0.562 | 1.19 | 0.487 | 147 | 0.979 | > 16000 | 0.929 | > 2000 | 0.88 | > 20000 | 0.908 | > 10000 | 0.035 | < 20 | 0.136 | < 78.1 | 0.61 | 16.8 | 0.97 | > 10000 | 0.966 | > 1000 | 0.765 | 1070 | 0.977 | > 1020 | 0.958 | > 256 |
| ETK-1 (biliary tract, adherent) | 0.542 | 1.03 | 0.9 | > 2560 | 0.983 | > 16000 | 0.983 | > 2000 | 0.838 | 16300 | 0.868 | > 10000 | 0.033 | < 20 | 0.407 | 669 | 0.797 | 69.7 | 0.983 | > 10000 | 0.978 | > 1000 | 0.764 | 1050 | 0.952 | > 1020 | 0.568 | 25.2 |
| EW-11 (Ewing sarcoma, adherent) | 0.607 | 1.67 | 0.597 | 319 | 0.977 | > 16000 | 0.973 | > 2000 | 0.96 | > 20000 | 0.912 | > 10000 | 0.054 | < 20 | 0.305 | 299 | 0.853 | > 128 | 0.972 | > 10000 | 0.935 | > 1000 | 0.792 | 1550 | 0.971 | > 1020 | 0.945 | > 256 |
| EW-18 (Ewing sarcoma, suspension) | 0.796 | 6.29 | 0.615 | 339 | 0.981 | > 16000 | 0.984 | > 2000 | 0.876 | > 20000 | 0.942 | > 10000 | 0.041 | < 20 | 0.16 | 103 | 0.587 | 14.1 | 0.986 | > 10000 | 0.961 | > 1000 | 0.949 | > 2560 | 0.952 | > 1020 | 0.977 | > 256 |
| EW-24 (Ewing sarcoma, semi-adherent) | 0.987 | > 12.5 | 0.993 | > 2560 | 0.992 | > 16000 | 0.987 | > 2000 | 0.989 | > 20000 | 0.975 | > 10000 | 0.13 | 26.8 | 0.729 | 5090 | 0.991 | > 128 | 0.981 | > 10000 | 0.976 | > 1000 | 0.993 | > 2560 | 0.991 | > 1020 | 0.905 | > 256 |
| GI-1 (glioma, adherent) | 0.458 | 0.605 | 0.93 | > 2560 | 0.929 | > 16000 | 0.94 | > 2000 | 0.853 | 14700 | 0.899 | > 10000 | 0.022 | < 20 | 0.266 | 279 | 0.662 | 22 | 0.972 | > 10000 | 0.986 | > 1000 | 0.559 | 231 | 0.976 | > 1020 | 0.69 | 53.2 |
